Assay results from the supplement of paper PMC4967469.
The IC50 comes from the fitted curve, where viability falls to half of the control; a fit beyond the top or the lowest dose is shown as a bound at that dose. AUC, from the same fit, is the share of area under the viability curve across the 256-fold dose range: 1 means no effect, lower means more sensitive. For some assays here: The top dose, if marked as inferred, comes from the curve model; the source does not state it. For some assays here: An entry number marks a drug with two screens in the source, which often give different values.

Tests used:
Test in all cases: Viability of human cancer cell lines after 72 h of drug (GDSC screen)
[1] = compound: Cc1ccc(NC(=O)c2cccc(C(C)(C)C#N)c2)cc1Nc1ccc2ncn(C)c(=O)c2c1 [AZ628]; settings: top dose 4 µM; top dose inferred
Procedure: (§1)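 Human cancer cell lines in 384-well plates, medium with 10% serum, drug for 72 h over a 256-fold dose range (nine 2-fold or five 4-fold steps up to the top dose). Adherent lines were fixed and stained with the nucleic acid dye Syto60, suspension lines read with resazurin; signal relative to control wells, capped at 0 and 100%. One two-parameter sigmoid per drug and line, fitted in a mixed model over all curves with the slope shared within a line.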

[2] = compound: Cn1cnc2c(F)c(Nc3ccc(Br)cc3Cl)c(C(=O)NOCCO)cc21 [AZD6244]; settings: top dose 4 µM; screen: GDSC drug entry 1498; top dose inferred
Procedure: as §1

[3] = compound: N#CC(c1ccnc(NCCc2cccnc2)n1)c1nc2ccccc2s1 [AS601245]; settings: top dose 8 µM; top dose inferred
Procedure: as §1

[4] = compound: NC(=O)C1CCCc2c1[nH]c1ccc(Cl)cc21 [EX-527]; settings: top dose 20 µM
Procedure: as §1

[5] = compound: Nc1ccc(C(=O)Nc2cccc(-c3nc(N4CCOCC4)c4oc5ncccc5c4n3)c2)cn1 [YM201636]; settings: top dose 5.12 µM; top dose inferred
Procedure: as §1

Row | Cell Line | AUC [1] | IC50 [1] [µM] | AUC [2] | IC50 [2] [µM] | AUC [3] | IC50 [3] [µM] | AUC [4] | IC50 [4] [µM] | AUC [5] | IC50 [5] [µM]
1 | KALS-1 (glioma, adherent) | 0.912 | > 4 | 0.817 | 3.38 | 0.914 | > 8 | 0.974 | > 20 | 0.922 | > 5.12
2 | KARPAS-45 (lymphoblastic leukaemia, suspension) | 0.935 | > 4 | 0.991 | > 4 | 0.856 | 4.81 | 0.983 | > 20 | 0.826 | 2.43
3 | KARPAS-299 (anaplastic large cell lymphoma, suspension) | 0.99 | > 4 | 0.975 | > 4 | 0.942 | > 8 | 0.976 | > 20 | 0.844 | 2.78
4 | KARPAS-422 (B-cell lymphoma, suspension) | 0.94 | > 4 | 0.958 | > 4 | 0.87 | 7.31 | 0.978 | > 20 | 0.904 | > 5.12
5 | KCL-22 (chronic myeloid leukaemia, suspension) | 0.647 | 0.592 | 0.909 | > 4 | 0.859 | 4.99 | 0.983 | > 20 | 0.93 | > 5.12
6 | KE-37 (lymphoblastic leukaemia, suspension) | 0.914 | 3.36 | 0.994 | > 4 | 0.848 | 3.94 | 0.992 | > 20 | 0.838 | 2.35
7 | KELLY (neuroblastoma, adherent) | 0.946 | > 4 | 0.955 | > 4 | 0.934 | > 8 | 0.988 | > 20 | 0.783 | 1.96
8 | KG-1 (acute myeloid leukaemia, suspension) | 0.856 | 2.7 | 0.805 | 1.77 | 0.925 | > 8 | 0.985 | > 20 | 0.818 | 2.49
9 | KGN (ovary, adherent) | 0.79 | 2.22 | 0.902 | > 4 | 0.766 | 3.56 | 0.97 | > 20 | 0.802 | 3.16
10 | KINGS-1 (glioma, adherent) | 0.831 | 3.99 | 0.922 | > 4 | 0.935 | > 8 | 0.972 | > 20 | 0.892 | > 5.12
11 | KM12 (large intestine, adherent) | 0.759 | 1.51 | 0.939 | > 4 | 0.791 | 3.93 | 0.973 | > 20 | 0.911 | > 5.12
12 | KM-H2 (Hodgkin lymphoma, suspension) | 0.976 | > 4 | 0.991 | > 4 | 0.904 | 7.82 | 0.99 | > 20 | 0.946 | > 5.12
13 | KMOE-2 (acute myeloid leukaemia, suspension) | 0.369 | 0.113 | 0.306 | 0.0764 | 0.928 | > 8 | 0.985 | > 20 | 0.765 | 1.69
14 | KNS-42 (glioma, adherent) | 0.943 | > 4 | 0.967 | > 4 | 0.878 | > 8 | 0.954 | > 20 | 0.881 | > 5.12
15 | KNS-81-FD (glioma, adherent) | 0.864 | > 4 | 0.848 | > 4 | 0.937 | > 8 | 0.973 | > 20 | 0.94 | > 5.12
16 | KOPN-8 (B-cell leukaemia, suspension) | 0.876 | 3.01 | 0.942 | > 4 | 0.877 | 6.07 | 0.974 | > 20 | 0.833 | 2.66
17 | KP-N-YN (neuroblastoma, adherent) | 0.867 | > 4 | 0.94 | > 4 | 0.938 | > 8 | 0.987 | > 20 | 0.926 | > 5.12
18 | KS-1 (glioma, adherent) | 0.581 | 0.441 | 0.792 | 2.33 | 0.83 | 6.79 | 0.98 | > 20 | 0.876 | > 5.12
19 | KU812 (chronic myeloid leukaemia, suspension) | 0.899 | > 4 | 0.563 | 0.366 | 0.926 | > 8 | 0.987 | > 20 | 0.592 | 0.56
20 | KURAMOCHI (ovary, adherent) | 0.887 | > 4 | 0.879 | > 4 | 0.781 | 3.87 | 0.984 | > 20 | 0.88 | > 5.12
